Results published in PubChem BioAssay AID504466 (National Center for Advancing Translational Sciences (NCATS), 2011).
In all, about 330,000 compounds went through this assay and about 4,200 (1.3%) were called active. The shares of active, inactive and inconclusive entries below differ from those in the screen. Calls come from the whole dose curve; as a rule, active = well fitted activation curve with a large enough effect; inconclusive = small, poorly fitted or top-dose-only effect; inactive = no such curve, though single readings can be large or run the other way. Potencies of inconclusive entries are doubtful fits and often do not repeat.
Potency is the fitted concentration of half-maximal effect; tags give direction and shape of the fitted curve.

Assay: qHTS screen for small molecules that induce genotoxicity in human embryonic kidney (HEK293T) cells expressing luciferase-tagged ELG1; note: nearly all actives have a fitted effect of over 60% in size
Conditions: HEK293T ELG1-luciferase reporter, luminescence, 16 h; series mostly up to 46 µM
How it was run: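 Luminescence read-out: rising ELG1-luciferase signal, reflecting elevated ELG1 protein under genetic stress, flags genotoxic compounds. Cells were treated for 16 hr at 37 °C before ONE-Glo detection.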
With `CCN(CC)CCCN(Cc1cc2cc3c(cc2[nH]c1=O)OCCO3)C(=O)Nc1ccc(F)cc1` the Potency was inconclusive: 16.4 µM [activator, partial curve, poor fit]. In the case of `C=CCOc1ccc(C=Nc2ccc(OC)cc2)c(O)c1`, the Potency is reported as “inactive”. In the case of `CC1=C(C(=O)OCc2ccccc2)C(c2cccc(F)c2)NC(=O)N1` (stereo unspecified), the Potency is reported as “inactive”. In the case of `Cc1cccc(/C=N/NC(=O)c2ccc(F)cc2)n1`, the Potency is reported as “inactive”. In the case of `CC(=O)c1ccccc1NC(=O)CSc1nnc2ccccn12`, the Potency is reported as inconclusive: 23.1 µM [activator, single point]. With `COc1ccc(N=Cc2c(O)[nH]c3ccccc23)cc1` the Potency was inconclusive: 2.06 µM [activator, full curve]. For `Cc1ccc(-c2nn(C)c(=O)c3ccccc23)cc1S(=O)(=O)N1CCOCC1`, the Potency was inconclusive: 13 µM [activator, partial curve]. For `Cc1ccc(SCC(=O)NC2CCCCCC2)cc1`, the Potency was inconclusive: 25.9 µM [activator, single point]. In the case of `Cc1cc(OCC(=O)N(C)C2CCCCC2)cc(C)c1Cl`, the Potency is reported as inconclusive: 9.2 µM [activator, partial curve, poor fit]. For `N#C/C(=N\Nc1ccc(F)cc1)C(=N)N1CCCCC1`, the Potency was active: 1.64 µM. In the case of `COc1ccc(C(=O)c2ccc(CC#N)s2)cc1`, the Potency is reported as inconclusive: 18.4 µM [activator, single point]. For `CCCNC(=O)C(CC)NC(=O)c1cccc([N+](=O)[O-])c1` (stereo unspecified), the Potency was “inactive”. For `CC(=O)Nc1ccc(NC(=O)C(c2ccccc2)c2ccccc2)cc1`, the Potency was inconclusive: 29.1 µM [activator, partial curve, poor fit]. For `COC(=O)[C@@]1(Cc2ccc(F)cc2)[C@H]2c3cc(C(=O)N4CCCC4)n(CCc4ccc(O)c(O)c4)c3C[C@H]2CN1C(=O)c1ccccc1`, the Potency was “inactive”. With `CC(=O)Nc1cc2nc(C)n(Cc3ccc([N+](=O)[O-])cc3)c2nc1C` the Potency was “inactive”. In the case of `O=C(Nc1nnc(SCc2ccc(F)cc2)s1)c1ccc2ncsc2c1`, the Potency is reported as inconclusive: 20.6 µM [activator, partial curve, poor fit]. For `O=C(c1cccn2c(=O)c3cc(Cl)ccc3nc12)N1CCN(Cc2ccc3c(c2)OCO3)CC1`, the Potency was “inactive”. With `O=C(/C=C/c1cccc(Oc2ccccc2)c1)N1CCOCC1` the Potency was inconclusive: 7.3 µM [activator, partial curve]. In the case of `Cc1cccc(NC(=O)CNC(=O)c2sc3ccccc3c2Cl)n1`, the Potency is reported as inconclusive: 16.4 µM [activator, partial curve]. In the case of `COc1ccc(CNC(=O)c2cc3c(=O)n4ccccc4nc3n(CC3CCCO3)c2=N)cc1` (stereo unspecified), the Potency is reported as inconclusive: 20.6 µM [activator, single point]. In the case of `CC(C)Oc1ccc(C(=O)NC(=S)Nc2ccc(Cl)c(C(=O)O)c2)cc1`, the Potency is reported as inconclusive: 20.6 µM [activator, partial curve, poor fit]. In the case of `O=C(CSc1nnc(Cc2ccccc2)n1C1CCCCC1)N1CCOCC1`, the Potency is reported as inconclusive: 18.4 µM [activator, partial curve, poor fit]. With `O=C(Nc1nc(-c2ccccc2)cs1)C1CCCCN1S(=O)(=O)c1ccccc1` (stereo unspecified) the Potency was “inactive”. For `C=CCc1cccc2cc(C(=O)Nc3ccc(F)cc3)c(=O)oc12`, the Potency was inconclusive: 13 µM [activator, partial curve, poor fit]. In the case of `C/C(=N\NC(=O)c1nnn(-c2nonc2N)c1C(C)C)c1ccncc1`, the Potency is reported as “inactive”. With `O=C(N/N=C/c1c[nH]c2ccccc12)c1ccc2c(c1)OCCO2` the Potency was inconclusive: 3.66 µM [activator, full curve]. With `O=C(c1cc2cc(Br)ccc2o1)N1CCCC1` the Potency was inconclusive: 20.6 µM [activator, single point]. In the case of `COCC1CCCCN1C(=O)c1ccc2oc(CCc3ccccc3)nc2c1` (stereo unspecified), the Potency is reported as inconclusive: 32.6 µM [activator, partial curve, poor fit]. In the case of `O=C(Nc1ccc2c(c1)OCO2)c1cccc2c1C(=O)N(Cc1cccnc1)C2`, the Potency is reported as inconclusive: 25.9 µM [activator, partial curve, poor fit]. In the case of `CCCCOc1ccc(C(=O)N2CCCC2)cc1`, the Potency is reported as active: 18.4 µM. For `O=C(COC(=O)c1ccccn1)NCCc1ccc(Cl)cc1`, the Potency was “inactive”. In the case of `O=C1/C(=C\Nc2ccc(Cl)cc2)CCN1c1ncccn1`, the Potency is reported as inconclusive: 5.8 µM [activator, full curve, poor fit]. For `COCCn1c(C)cc(C(=O)CSc2nnc3ccccn23)c1C`, the Potency was active: 0.58 µM. In the case of `Cc1cc(C)c(C)c(OC(=O)c2sc(Cl)nc2C)c1`, the Potency is reported as “inactive”. For `COc1ccc(OCc2cc(C(=O)N3C[C@@H](C)O[C@@H](C)C3)no2)c(Cl)c1`, the Potency was inconclusive: 20.6 µM [activator, partial curve, poor fit]. In the case of `O=c1oc2ccccc2c(N2CCCC2)c1CN1CCCC1`, the Potency is reported as “inactive”. For `CCOc1ccc(NC(=S)N2CCC(NC(=O)c3ccco3)CC2)cc1`, the Potency was “inactive”. For `CC(C)(C)Nc1cccccc1=O`, the Potency was “inactive”. For `O=[N+]([O-])c1ccccc1NC(=S)N/N=C/c1ccc(O)c(O)c1`, the Potency was active: 3.66 µM. In the case of `O=C1C=C(O)c2cccc(O)c2C1=O`, the Potency is reported as “inactive”. With `O=C(Nc1ccc(N2CCCCC2)cc1)c1cccnc1Cl` the Potency was active: 20.6 µM. In the case of `CC1Oc2ccccc2N(CC(=O)NCc2ccccc2)C1=O` (stereo unspecified), the Potency is reported as inconclusive: 23.1 µM [activator, partial curve, poor fit]. For `O=C(CCc1nnc2ccc(NCc3ccco3)nn12)Nc1ccccc1F`, the Potency was inconclusive: 23.1 µM [activator, partial curve, poor fit]. For `O=C1c2ccccc2C(=O)N1CCC1=CCCCC1`, the Potency was inconclusive: 18.4 µM [activator, partial curve]. For `COc1ccc(-n2c(C)cc(/C=C3\SC(=S)N(Cc4ccco4)C3=O)c2C)cc1`, the Potency was “inactive”. In the case of `COc1ccc(C2(c3ccc(OC)cc3)NC(=O)N(CC(=O)N(C)C)C2=O)cc1`, the Potency is reported as “inactive”. In the case of `Cc1ccc(C)c(OCc2cc(C(=O)N3CCOCC3)no2)c1`, the Potency is reported as inconclusive: 20.6 µM [activator, partial curve, poor fit]. With `O=C(CSc1ncn[nH]1)Nc1nc(-c2ccccc2)ns1` the Potency was inconclusive: 29.1 µM [activator, single point]. For `CN(C)CCNC(=O)c1[nH]nc2c1CCc1ccccc1-2`, the Potency was inconclusive: 29.1 µM [activator, single point]. For `CCNC(=O)COc1ccc2ccccc2c1`, the Potency was inconclusive: 23.1 µM [activator, partial curve, poor fit]. With `Cc1cc(C(=O)COC(=O)c2ccc(Br)o2)c(C)n1Cc1ccco1` the Potency was inconclusive: 23.1 µM [activator, partial curve]. For `COc1ccc(CCNC(=O)c2ccc3c(c2)OCO3)cc1`, the Potency was “inactive”. With `Cc1ccc(-c2cc(-c3cccc(F)c3)n[nH]2)c(O)c1` the Potency was inconclusive: 3.26 µM [activator, full curve]. With `COc1ccc(Cl)cc1C(=O)Nc1ccc(Br)c(C)n1` the Potency was inconclusive: 23.1 µM [activator, single point]. With `Cn1c(=O)c2c(ncn2CCOc2ccc(F)cc2)n(C)c1=O` the Potency was “inactive”. For `Cc1ccc2nc(N3C(=O)CNC3=S)sc2c1`, the Potency was active: 20.6 µM. For `Cc1ccccc1CN(C)CCS(=O)(=O)c1cc(Cl)ccc1Cl`, the Potency was inconclusive: 18.3 µM [activator, single point]. For `COc1cccc(NC(=O)Nc2cc(C(=O)O)ccc2C)c1`, the Potency was “inactive”. In the case of `C/C(=N\Nc1ccc2nncn2n1)c1cccs1`, the Potency is reported as inconclusive: 25.9 µM [activator, partial curve, poor fit]. In the case of `Nc1nc(-c2nc3ccccc3[nH]2)cs1`, the Potency is reported as active: 2.06 µM. In the case of `COc1cccc(OC)c1C(=O)Nc1cccc(-c2nc3ccccc3[nH]2)c1`, the Potency is reported as “inactive”. With `CC1CN(C(=O)N2CCCCC2)CCN1C(=O)N1CCCCC1` (stereo unspecified) the Potency was “inactive”. For `O=C(Nc1ccc2c(c1)OCO2)c1ccc2c(c1)OCO2`, the Potency was inconclusive: 2.31 µM [activator, partial curve]. With `O=C(COc1ccc(-c2nnco2)cc1)Nc1c(F)cccc1F` the Potency was inconclusive: 16.4 µM [activator, partial curve, poor fit]. With `Cc1ccc(OCc2cc(C(=O)N(C)CCc3ccccc3)no2)cc1C` the Potency was inconclusive: 6.51 µM [activator, partial curve]. In the case of `CCCOc1ccc(OCCSc2nnc(N)s2)cc1`, the Potency is reported as active: 12.6 µM. For `CNc1nc2c(-c3ccc(Cl)cc3)nnn2c2ccccc12`, the Potency was inconclusive: 13 µM [activator, partial curve]. For `CCOc1ccccc1N(CC(=O)NC1CCCCC1)C(=O)CCC(=O)Nc1nccs1`, the Potency was “inactive”. In the case of `Cc1ccc(-c2nc3ncccc3o2)cc1NC(=O)Cc1ccc(Cl)cc1`, the Potency is reported as inconclusive: 23.1 µM [activator, partial curve, poor fit]. For `O=C(Nc1ccc(N2CCCCC2)c(Cl)c1)c1cccnc1`, the Potency was inconclusive: 2.06 µM [activator, full curve]. With `Nc1ccc(Cc2nc3c(ccc4ccccc43)[nH]2)cc1` the Potency was inconclusive: 20.6 µM [activator, partial curve, poor fit]. With `O=C(Nc1ncc(Cc2cccc(Cl)c2Cl)s1)C1CCCO1` (stereo unspecified) the Potency was active: 16.4 µM. With `CC1Cc2ccccc2N1C(=O)COC(=O)C1(c2ccccc2F)CCCC1` (stereo unspecified) the Potency was “inactive”. With `COc1ccc2nc3sc(C(=O)N4CCN(C)CC4)cc3cc2c1` the Potency was inconclusive: 29.1 µM [activator, single point]. With `Cn1cc(/C=C/C(=O)c2ccccc2)c2ccccc21` the Potency was active: 1.83 µM. For `CN(C)c1ccc(CNc2ccccn2)cc1`, the Potency was inconclusive: 14.6 µM [activator, partial curve, poor fit].
